Laboratory results reported in PMC4336329 (PLoS ONE, 2015).
Among all 310,000 compounds or so, about 14,000 (4.5%) showed an effect of 50% or more. The effect is printed as a negative number. The list shows a part of the results.

These compounds were tested against human ether-à-go-go-related gene (hERG) potassium channel (human, UniProt Q12809) (assay: primary screen, population patch clamp on CHO cells stably expressing hERG).
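Also: peak tail current of the secondary pulse compared with the same well before compound.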

Sequence of human ether-à-go-go-related gene (hERG) potassium channel (Q12809 whole entry, looked up): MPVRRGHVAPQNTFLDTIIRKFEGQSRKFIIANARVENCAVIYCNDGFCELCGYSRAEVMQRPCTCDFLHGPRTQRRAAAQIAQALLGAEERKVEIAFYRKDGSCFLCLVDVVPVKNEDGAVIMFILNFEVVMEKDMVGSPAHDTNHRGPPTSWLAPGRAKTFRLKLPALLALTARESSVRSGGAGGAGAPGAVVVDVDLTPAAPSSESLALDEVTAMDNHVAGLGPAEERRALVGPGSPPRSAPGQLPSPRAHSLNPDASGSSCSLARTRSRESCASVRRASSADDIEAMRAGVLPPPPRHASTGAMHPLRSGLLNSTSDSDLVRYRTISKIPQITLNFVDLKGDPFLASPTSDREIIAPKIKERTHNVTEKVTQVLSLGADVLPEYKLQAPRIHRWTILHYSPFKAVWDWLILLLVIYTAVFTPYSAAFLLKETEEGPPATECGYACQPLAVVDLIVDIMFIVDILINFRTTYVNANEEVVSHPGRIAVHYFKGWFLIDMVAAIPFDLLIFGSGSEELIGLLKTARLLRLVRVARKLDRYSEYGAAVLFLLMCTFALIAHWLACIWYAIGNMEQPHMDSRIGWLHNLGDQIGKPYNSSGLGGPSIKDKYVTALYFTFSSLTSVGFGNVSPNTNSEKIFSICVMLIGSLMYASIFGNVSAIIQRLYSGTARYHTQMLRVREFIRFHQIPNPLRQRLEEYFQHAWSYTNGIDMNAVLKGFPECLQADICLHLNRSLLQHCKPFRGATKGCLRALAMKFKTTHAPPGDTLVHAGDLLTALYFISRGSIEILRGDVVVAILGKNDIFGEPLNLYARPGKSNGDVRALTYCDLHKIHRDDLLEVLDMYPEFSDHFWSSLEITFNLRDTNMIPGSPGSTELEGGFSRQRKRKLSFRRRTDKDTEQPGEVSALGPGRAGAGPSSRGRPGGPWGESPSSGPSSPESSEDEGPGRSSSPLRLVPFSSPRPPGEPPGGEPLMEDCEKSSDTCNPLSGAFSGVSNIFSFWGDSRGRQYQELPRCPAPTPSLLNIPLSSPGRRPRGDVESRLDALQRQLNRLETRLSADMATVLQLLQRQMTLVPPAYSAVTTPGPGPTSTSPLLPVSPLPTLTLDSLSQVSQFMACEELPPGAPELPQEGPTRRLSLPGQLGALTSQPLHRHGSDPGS

| Compound | hERG current change (%, negative = inhibition) at 10uM [%] |
| --- | --- |
| COC(=O)Cc1csc(N)n1.Cl | 2.11 |
| CCOc1ccccc1N(CC(=O)Nc1ccc(S(=O)(=O)N2CCOCC2)cc1)S(C)(=O)=O | -20.3 |
| O=C(COC(=O)c1n[nH]c2ccccc12)NCCc1ccc(Cl)cc1 | -3.3 |
| O=C(NCCCn1ccnc1)c1cc(C(=O)C2CC2)c[nH]1 | 5.65 |
| O=C(CC1C(=O)NCCN1Cc1cccc(C(F)(F)F)c1)NCCc1cnccn1 (centres unmarked) | 7.22 |
| CCOC(=O)C1CCCN(C(=O)Cn2nc(C)c3c(C)n(-c4ccccc4)nc3c2=O)C1 (centres unmarked) | 14.5 |
| CCCCCCNS(=O)(=O)c1ccc(OC)c(OC)c1 | -11 |
| Cc1cc2ncn(/N=C/c3cccnc3)c2cc1C | -6.12 |
| CC1(c2ccccc2)CC(C)(C)N2C(=O)/C(=C3\SC(=S)NC3=O)c3cccc1c32 (centres unmarked) | -0.561 |
| COc1ccc(OC)c(Cc2nnc(CCC(=O)NC3C4CC5CC(C4)CC3C5)o2)c1 (centres unmarked) | -12.7 |
| O=C(COc1ccc(Cl)cc1Cl)NNC(=O)c1cccnc1 | -5.31 |
| Cn1ncc(Cl)c1C(=O)N1CCN(c2ccc(F)cc2)CC1 | 5.04 |
| Br.O=C(CN1C2=NCCN2c2ccccc21)c1ccc2c(c1)OCO2 | -60.9 |
| Cc1ccc(NS(=O)(=O)c2cccc(C(=O)NCc3ccccn3)c2)cc1 | -68.5 |
| N#Cc1cccc(S(=O)(=O)NCC(=O)OCC(=O)c2ccc[nH]2)c1 | 6.5 |
| CS(=O)(=O)N1CCN(c2ccc(NC(=O)c3ccc(-c4ccc(Cl)cc4)o3)cc2)CC1 | -10.6 |
| CCc1c(C)c2ccc(OCC(N)=O)cc2oc1=O | -0.688 |
| O=C(Cc1ccsc1)NNC(=O)c1ccc(F)cc1 | -18.8 |
| Cc1cc(=O)oc2cc(OCC(=O)N3C[C@H]4C[C@@H](C3)c3cccc(=O)n3C4)c(Cl)cc12 | 7.12 |
| O=C(Nc1ccc(CSc2ccccc2)cc1)c1ccco1 | 8.8 |
| CSCC[C@H](NC(=O)N1CCn2c1nc1ccccc12)C(=O)NCc1ccc(F)cc1 | -49.6 |
| CCCSC1=N/C(=C\c2ccc3c(c2)OCO3)C(=O)S1 | 10.6 |
| CC1Sc2ccc(S(=O)(=O)CCC(=O)N3CCN(c4ccccc4F)CC3)cc2NC1=O (centres unmarked) | 8.15 |

| Compound | hERG current change (%, negative = inhibition) at 10uM [%] |
| --- | --- |
| O=C1C2C3C=CC(C3)C2C(=O)N1c1ccccc1OS(=O)(=O)c1ccccc1 (centres unmarked) | 3.59 |
| CCn1cnc2c1c(=O)n(Cc1csc(-c3ccccc3)n1)c(=O)n2Cc1ccccc1 | -7.62 |
| CCC(=O)Nc1c(-c2ccc(Cl)cc2)c(=O)c2ccccc2n1C | 3.11 |
| O=C(NCc1ccc2c(c1)OCO2)C(c1ccco1)N(C(=O)c1csnn1)c1ccccc1 (centres unmarked) | -6.3 |
| CCOc1ccccc1C1NC(=O)NC(C)=C1C(=O)OC1CCCC1C (centres unmarked) | -8.61 |
| O=C1OC(=O)c2c(Br)c(Br)c(Br)c(Br)c21 | 20.7 |
| CC(NC(=O)OCc1ccccc1)C(=O)OCN1C(=O)c2ccccc2C1=O (centres unmarked) | 3.4 |
| N#C/C(N)=C(/C#N)N=Cc1cccc(Cl)c1 | 4.99 |
| C=CCN1C(=O)CSc2ccc(C(=O)NCc3ccc(F)cc3)cc21 | -21.3 |
| O=C(O)c1cc(N/N=C2/CC(c3ccccc3)Oc3ccccc32)ccc1Cl (centres unmarked) | -2.45 |
| Cn1c(-c2ccccc2O)cc2ccccc21 | -1.56 |
| COc1cccc(NC2CC(=O)N(CCc3ccccc3)C2=O)c1 (centres unmarked) | -1.13 |
| OC1NC(=S)N(c2ccccc2)C1O (centres unmarked) | 8.96 |
| S=c1[nH]nc(-c2cccnc2)n1-c1ccccc1 | 22.9 |
| CCc1nnc(NC(=O)CSc2nnc(-c3ccc(OC)cc3)n2C)s1 | 10.5 |
| O=C1CN(C(=O)COC(=O)c2ccccc2NCc2ccco2)c2ccccc2N1 | -2.84 |
| O=C(Nc1ccnn1C1CCN(C(=O)c2cc(Cl)ccc2F)CC1)C1CCOC1 (centres unmarked) | 23.6 |
| COC(=O)c1ccc(NC(=S)Nc2ccccn2)cc1 | 22.9 |
| Cc1cccc(NC(=O)c2ccccc2NC(=O)Cc2ccccc2)c1C | 4.93 |
| CCc1ccc(N2CC(C(=O)NC3CC3)CC2=O)cc1 (centres unmarked) | 14.2 |
| Cc1cc(N2CCN(C(=O)c3ccco3)CC2)n2nc(C)nc2n1 | -44 |
| CCN(C(=O)CSc1nnc(-c2cccs2)n1N)c1c(N)n(Cc2ccccc2)c(=O)[nH]c1=O | 0.193 |
| CCn1c(COC(=O)CNC(=O)c2ccccc2F)nc2cc(S(=O)(=O)N(C)C)ccc21 | -14.8 |

| Compound | hERG current change (%, negative = inhibition) at 10uM [%] |
| --- | --- |
| Cc1ccccc1-n1c(C)cc(/C=N/NC(=O)c2ccncc2)c1C | -3.05 |
| Cc1ccc(OCCCC(=O)N(C)CC(=O)Nc2ccccc2Br)cc1 | -23.5 |
| CCNS(=O)(=O)c1ccc2nc(NC(=O)c3cccnc3)sc2c1 | -1.78 |
| Cc1cccc(NC(=O)NC2CCCc3ccccc32)c1 (centres unmarked) | 14.5 |
| c1ccc(-c2nc3ccccc3c3nncn23)cc1 | 0.662 |
| CC(C)C(=O)NC(=S)Nc1ccccc1C(=O)Nc1ccccc1 | 16.6 |
| NS(=O)(=O)c1ccc(S(=O)(=O)N2CCCC2)cc1 | 6.7 |
| C[C@@H](O)CC(=O)[O-].[Na+] | -6.57 |
| Cc1ccc(C)c(SCC(=O)NC(=O)NC2CCCC2)c1 | -12.3 |
| CC(=O)c1ccc(NC(=O)CSc2nc(=O)n(CCN3CCOCC3)c3c2CCC3)cc1 | -7.74 |
| O=C1c2ccsc2SCCN1Cc1cccc(Cl)c1 | -12.2 |
| O=C(NNC(=O)c1ccc(S(=O)(=O)N2CCCCC2)cc1)c1ccccc1 | 8.54 |
| Cc1cccc(C)c1OCC(=O)Nc1ncn[nH]1 | 18.2 |
| Cl.Oc1ccccc1CNCC12CC3CC(CC(C3)C1)C2 | -5.56 |
| O=C1CNC(=O)N1 | 13.6 |
| Cc1ccc2[nH]c(O)c(N=Nc3nc4ccccc4s3)c2c1 | -4.7 |
| CCc1ccccc1NC1c2ccccc2C(=O)N1c1cc(C)ccn1 (centres unmarked) | -1.18 |
| CCOC(=O)C1(Cc2cccc(OC)c2)CCN(CC2CC=CCC2)CC1 (centres unmarked) | -71.7 |
| O=C(NC1CCCc2c1cnn2-c1cc(F)cc(F)c1)c1cc[n+]([O-])cc1 (centres unmarked) | -37.1 |
| CCOc1ncccc1C(=O)NNC(=O)c1ccc(NS(=O)(=O)c2cccs2)cc1 | 13 |
| Cc1nccn1CC(=O)N/N=C/c1ccccc1O | -10.2 |
| COc1cccc(-c2c(C(=O)N/N=C(\C)COc3ccccc3)nnn2-c2nonc2N)c1 | -27.2 |
| ClC1CCCCC1n1nnc2ccccc21 (centres unmarked) | 10.2 |

| Compound | hERG current change (%, negative = inhibition) at 10uM [%] |
| --- | --- |
| CCOC(=O)N1CCN(C(=O)CSCC(=O)Nc2nc(-c3ccc(C)cc3)cs2)CC1 | -14.1 |
| COc1ccc(S(=O)(=O)Nc2ccc(-c3ccc4nnc(C)n4n3)cc2)c(OC)c1 | 10.2 |
| Cn1c(=O)n(Cc2ccccc2)c(=O)c2c1nc1n2CCCN1Cc1ccccc1 | -31.1 |
| Cc1ccccc1CC(=O)N(CCN(C)C)CC1CCCN(Cc2ccccc2F)C1 (centres unmarked) | 1.19 |
| Cc1cc(NC(=O)CCC(=O)N(c2ccccc2)C(C(=O)NCC2CCCO2)c2cccnc2)no1 (centres unmarked) | -3.41 |
| O=C(Nc1ccc2c(c1)OCO2)c1ccccc1 | 5.43 |
| O=[N+]([O-])c1cc(F)c2cccnc2c1O | 17.4 |
| Nc1sc(-c2ccccc2)cc1-c1n[nH]c(=S)n1C1CCCCC1 | 20.3 |
| CCCC(=O)OCC(=O)Nc1ccc(N=Nc2ccccc2)cc1 | -8.3 |
| O=C(CSc1nc(Nc2ccccc2)nc(N2CCOCC2)n1)Nc1ccc2c(c1)OCCO2 | -7.99 |
| CN(C)c1cc(Cl)c2nonc2c1N | 0.979 |
| CCOC(=O)C1=C(C)NC(=O)NC1c1c(C)nn(-c2ccccc2)c1Cl (centres unmarked) | -0.17 |
| CCOc1ccccc1N1CCN(C(=O)C(F)(F)F)CC1 | -1.42 |
| CCCCn1c(N)c(N(CCOC)C(=O)c2ccc(S(=O)(=O)N(CC)c3ccccc3)cc2)c(=O)[nH]c1=O | 8.17 |
| COc1ccc(NC(=O)CN(C)C(=O)c2cc3c(s2)CCC(C)C3)cc1 (centres unmarked) | -2.05 |
| COC(=O)c1c(NC(=O)CN2C(=O)NC3(CCC(C)CC3)C2=O)sc2c1CCC2 (centres unmarked) | -0.978 |
| N#Cc1ccsc1NC(=O)CN1CCN(c2ccccc2)CC1 | 1.63 |
| COc1ccc2cc(CN(Cc3cccs3)Cc3nnnn3Cc3ccccc3)c(=O)[nH]c2c1 | -11.3 |
| CC(=O)c1ccc(NC(=O)/C(=C\c2ccc(F)cc2)NC(=O)c2ccco2)cc1 | -29.2 |
| O=c1cc(Cn2nnc(-c3ccc(Cl)cc3)n2)nc2sccn12 | -34.1 |
